From the supplement of paper PMC3334620
Over roughly 33,000 sequences, “E-score (-0.5 to 0.5)” has its median near -0.054; the highest 2% begin near 0.35. Some of the results follow.

target: T1, Stb5 (UniProt P38699); test: PBM E-score (8-mer binding enrichment) (E-score (-0.5 to 0.5)); higher = stronger / more preferred TF binding; most listed sequences are background and not binding sites; settings: protein concentration: 200 nM; construct: GST-full length
T1 sequence: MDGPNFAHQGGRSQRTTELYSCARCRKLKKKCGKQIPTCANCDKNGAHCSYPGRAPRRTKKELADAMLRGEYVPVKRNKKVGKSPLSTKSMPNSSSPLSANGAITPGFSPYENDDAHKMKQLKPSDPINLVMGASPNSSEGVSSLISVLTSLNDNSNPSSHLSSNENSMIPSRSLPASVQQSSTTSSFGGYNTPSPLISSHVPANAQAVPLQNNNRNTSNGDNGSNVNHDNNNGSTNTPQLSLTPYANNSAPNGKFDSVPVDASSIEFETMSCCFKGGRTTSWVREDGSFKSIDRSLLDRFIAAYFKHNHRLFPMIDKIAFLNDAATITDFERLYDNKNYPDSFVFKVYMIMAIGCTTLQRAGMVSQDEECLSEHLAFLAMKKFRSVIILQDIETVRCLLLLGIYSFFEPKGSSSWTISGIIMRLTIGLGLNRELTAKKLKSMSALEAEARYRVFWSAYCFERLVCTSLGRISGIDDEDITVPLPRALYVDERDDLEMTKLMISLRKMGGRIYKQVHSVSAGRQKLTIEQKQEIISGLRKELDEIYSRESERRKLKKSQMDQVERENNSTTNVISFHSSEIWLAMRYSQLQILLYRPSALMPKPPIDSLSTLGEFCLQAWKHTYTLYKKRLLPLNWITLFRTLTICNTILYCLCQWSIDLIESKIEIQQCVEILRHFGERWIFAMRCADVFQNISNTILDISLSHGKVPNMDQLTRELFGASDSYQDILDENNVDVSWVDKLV
Procedure, shortened: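 Universal all-10-mer Agilent arrays, double-stranded by primer extension on fresh or once-stripped slides, were probed with about 100-200 nM GST-tagged yeast transcription factors made by PURExpress. Fluorescent anti-GST detected bound protein, and masliner normalised the scans. E-scores from the Universal PBM Analysis Suite were given to each ungapped eight-base word pooled with its reverse complement.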

| Sequence | PBM E-score |
| --- | --- |
| TCAACTAA | -0.125 |
| AACTTAGG | -0.163 |
| GTCTGGCA | 0.00084 |
| GGGTGCGA | -0.0506 |
| TGTTCAAA | -0.112 |
| AGGTGTCA | 0.12 |
| CCGAAAAA | 0.105 |
| GTTCAGGA | -0.0733 |
| AAAAATCA | -0.158 |
| CCATACAA | -0.267 |
| CAAATTAC | 0.0913 |
| GAGACGAC | -0.0645 |
| CTTAGGAA | 0.0538 |
| GTTGTGAA | -0.301 |
| ACGGGAAT | 0.371 |
| CTATTGTC | -0.167 |
| TCCTCTCA | -0.269 |
| GATGGAAA | -0.153 |
| ACCAAGTA | -0.187 |
| ACGGCAGG | -0.0969 |
| GTATATGA | 0.00913 |
| ATTTACTA | -0.158 |
| GGGTTCAA | 0.109 |
| ATTTTTCG | -0.202 |
| CCGGATAA | 0.344 |

| Sequence | PBM E-score |
| --- | --- |
| GTTGGAGA | 0.0784 |
| CTCTCCCA | -0.243 |
| AACGCTCG | -0.0301 |
| CCAAACTC | -0.0172 |
| ACCCGCGC | 0.202 |
| CGACCTAC | -0.178 |
| GATGGGGC | -0.0973 |
| GGCCTACA | 0.115 |
| AAAATCGC | -0.032 |
| CGGGGAAC | 0.141 |
| CCGTACAG | 0.054 |
| GTTACTAA | -0.129 |
| CTGTTCGC | -0.0755 |
| CTGGGGTA | -0.00994 |
| GCCCACCC | -0.0631 |
| ATACCGTA | 0.259 |
| CTTAGATA | -0.00866 |
| GGGTCTAA | 0.174 |
| GTCGGGTA | 0.143 |
| AATCGCCT | -0.239 |
| ATGGCCAT | -0.154 |
| ATTGGCTG | -0.164 |
| GGATTCAC | 0.124 |
| AGGCCTCC | -0.259 |
| CGGCTCAA | 0.0531 |

| Sequence | PBM E-score |
| --- | --- |
| TATTGTAA | -0.00772 |
| TCACCTCA | -0.202 |
| AGCCCTAG | -0.177 |
| GCTAACCA | -0.11 |
| CGTGATGA | -0.219 |
| ATGCTAAT | -0.26 |
| CATTAAAA | 0.121 |
| CGCCGGGC | 0.318 |
| GGAGGCCC | 0.0592 |
| AAGTCGCT | -0.139 |
| GAGCTTAC | 0.00679 |
| CTTCGAGC | -0.0166 |
| AAAATCTC | -0.189 |
| GCCAAGAC | -0.0423 |
| CTGACCAC | -0.266 |
| ATTCGCCA | -0.185 |
| TACACAAA | 0.136 |
| CCACCCAG | -0.0716 |
| AACTACAC | -0.154 |
| CCGCCAAA | 0.292 |
| AATAGCTA | -0.151 |
| CCTGTGAA | -0.157 |
| GGGGTAGA | 0.0235 |
| GCTCTTAA | 0.215 |
| GTATGGAA | -0.143 |

| Sequence | PBM E-score |
| --- | --- |
| GATAGTCA | 0.0661 |
| ATCTATAA | 0.134 |
| AAAGCATA | -0.0489 |
| CATATTCC | 0.0411 |
| CAGGTACA | -0.0453 |
| GGGCTCCA | -0.123 |
| ATGTACAC | -0.21 |
| CCCGGGGC | 0.258 |
| CCCTGACG | 0.0575 |
| CACGCGGA | 0.231 |
| GAACCATC | -0.135 |
| AACTCAGT | -0.214 |
| GCGGATAA | 0.236 |
| GACCAAAA | 0.0332 |
| CTTGATTA | 0.0908 |
| ATAGAGTG | -0.054 |
| CTATATCA | 0.0852 |
| AAATTCGG | 0.12 |
| GGTGGACA | 0.00374 |
| AAAATGTA | -0.0998 |
| ACGTTCGA | -0.227 |
| AGATGAAC | -0.109 |
| ATGACCAG | -0.211 |
| CAGGATAC | -0.0969 |
| AATCATAT | -0.207 |

| Sequence | PBM E-score |
| --- | --- |
| CTGTGTAA | -0.191 |
| TAGGGAAA | 0.0766 |
| AAGCCTCC | -0.0443 |
| GTGACAAC | -0.0547 |
| CTTTCATA | 0.109 |
| CCGGCGCC | 0.293 |
| AAAATAGG | 0.0823 |
| GAGATGAA | -0.00726 |
| GCTAGAGA | -0.135 |
| ACGGTTCG | 0.0226 |
| CGACTCTC | -0.012 |
| GAAAGACC | 0.19 |
| AGAGCAGG | -0.111 |
| TATCGAGA | -0.289 |
| ACAAGACT | -0.362 |
| CCCAGGGG | -0.0984 |
| GGTAGCCA | -0.332 |
| GGTTGCGA | -0.0196 |
| ATAGCAAT | -0.0233 |
| AATGTTGC | 0.00161 |
| AAGTTGCG | -0.0157 |
| CAGGCACG | 0.134 |
| CCCGCTCC | 0.268 |
| AGATTGGC | -0.0759 |
| AAGGCCGC | 0.441 |

| Sequence | PBM E-score |
| --- | --- |
| CGGTACCC | 0.157 |
| CCCAGCAG | -0.0202 |
| AACTGGCA | -0.0464 |
| CCGCATGC | 0.219 |
| AACTCAAT | -0.115 |
| GCGAATAC | 0.111 |
| AACAATGG | -0.232 |
| TAGACAAA | -0.188 |
| AATGTTCG | -0.0151 |
| CCAGGCCA | -0.312 |
| CCGTCCCC | 0.198 |
| ATACTTTA | -0.105 |
| ATCTCTAG | -0.12 |
| CTGCATAC | -0.0473 |
| CCCATTTC | -0.0367 |
| AAATAGCT | -0.0851 |
| GTGCGCTA | -0.0155 |
| CTGTTCAA | -0.217 |
| CACGCTTC | -0.212 |
| CTATCATA | -0.14 |
| AAACGACT | -0.0894 |
| TATTTTGA | -0.0679 |
| GCCATTTA | -0.0738 |
| CAGCATCA | -0.107 |
| ATGGGAAT | -0.0725 |

| Sequence | PBM E-score |
| --- | --- |
| GCATGCCA | -0.138 |
| TCGTCCAA | -0.0837 |
| CAAAGGCA | -0.149 |
| TTCCCCAA | -0.232 |
| ACTATACT | -0.0742 |
| CAAGTTAA | -0.201 |
| ACGACGTA | -0.172 |
| AACTACCT | -0.0653 |
| ATACGGTG | 0.226 |
| CCGGTAAC | 0.265 |
| GCGCAACA | -0.0279 |
| ATCAACAA | -0.261 |
| ACGATGCC | -0.154 |
| ATAAGTTG | -0.169 |
| CTAAAGCC | 0.228 |
| AGGAAGTG | -0.165 |
| GTACGTGA | -0.195 |
| ATGAAATG | 0.0192 |
| GCGTCTTA | -0.118 |
| GGCTGAAC | -0.0489 |
| CCGACACC | 0.348 |
| CATTTACA | -0.153 |
